{
  "source": "PubChem BioAssay AID686978",
  "about": "(National Center for Advancing Translational Sciences (NCATS), 2013)",
  "note": "Screen size: about 420,000 compounds; about 64,000 (15%) were called active. The shares of active, inactive and inconclusive entries below differ from those in the screen. The call rests on the fitted dose curve; in most records, active means well fitted inhibition curve with a large enough effect; inconclusive means small, poorly fitted or top-dose-only effect; inactive means flat fitted curve, though single readings scatter. No potency is given beside an inconclusive call; the fits are too rough. On the % scale 0 is the no-effect control and ±100 the full control effect; potency means the concentration at half of the fitted maximal effect; tags describe the fitted curve by direction and shape.",
  "data": [
    {"experiment": "qHTS for Inhibitors of human tyrosyl-DNA phosphodiesterase 1 (TDP1): qHTS in cells in absence of CPT; further: nearly all actives have a fitted effect of over 55% in size", "details": "DT40 Tdp1-/- hTDP1 cells, no CPT, ATP luminescence, 48 h; activity change, negative = growth inhibition: at 46.2 µM (top of the series) unless noted", "in_short": "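Readout: luminescence from CellTiter-Glo after 30 min in the dark at RT. Cells: DT40 Tdp1-/- with stable hTDP1, 400/well. Exposure: compounds alone, ≥48 hr, 37 °C.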", "values": [
      {"smiles": "CCN(CC)C(=O)CSc1nnc(CNc2ccc(F)cc2)n1Cc1ccco1", "activity change, negative = growth inhibition": "inactive: 0.469%"},
      {"smiles": "Cc1ccc(NC(=O)c2cnccn2)cc1C", "activity change, negative = growth inhibition": "inactive: 6.12%"},
      {"smiles": "CCCNC(=O)Nc1cc(OCC)c(N2CCOCC2)cc1OCC", "Potency": "active: 18.4 µM"},
      {"smiles": "Cc1ccc2cc(CCNC(=O)CCCc3ccccc3)c(=O)[nH]c2c1", "Potency": "inconclusive [inhibitor, single point]"},
      {"smiles": "COc1ccc(Cn2c(N)c(C#N)c3nc4ccccc4nc32)cc1", "Potency": "inconclusive [inhibitor, partial curve, poor fit]"},
      {"smiles": "CC1=NN(C(=O)c2ccc(Br)cc2)C(O)(C(F)(F)OC(F)(F)F)C1", "note": "(stereo unspecified)", "Potency": "inconclusive [inhibitor, single point]"},
      {"smiles": "O=C(N/N=C/c1ccc(Cl)cc1)c1ccc2c(c1)OCO2", "Potency": "active: 13 µM"},
      {"smiles": "COc1ccc(C(=O)Nc2nc3ccccc3[nH]2)cc1S(=O)(=O)N1CCCC1", "activity change, negative = growth inhibition": "inconclusive: -34.3% [inhibitor]"},
      {"smiles": "O=C(Nc1nnc(-c2ccc3c(c2)CCCC3)o1)c1ccc(Cl)cc1Cl", "Potency": "inconclusive [inhibitor, single point]"},
      {"smiles": "O=C(CCNC(=O)c1ccc(Cl)cc1)NCC(c1ccco1)N1CCCC1", "note": "(stereo unspecified)", "activity change, negative = growth inhibition": "inactive: 3.61%"},
      {"smiles": "COC(=O)c1ccc(NC(=O)Nc2ccc([N+](=O)[O-])cc2)cc1", "Potency": "active: 2.31 µM"},
      {"smiles": "Cc1ccnc2nc(C(=O)OCC(=O)Nc3ccc4c(c3)OCCO4)nn12", "activity change, negative = growth inhibition": "inactive: -6.39%"},
      {"smiles": "Cc1ccc(S(=O)(=O)N2CCOCC2)cc1NC(=O)COC(=O)c1cnc(Cl)c(Cl)c1", "activity change, negative = growth inhibition": "inactive: -11.7%"},
      {"smiles": "Cc1ccc2c(c1)C(=O)C(=O)N2Cc1ccc(Br)cc1", "Potency": "active: 0.651 µM"},
      {"smiles": "CCCC(=O)Nc1nc2c(ncn2[C@@H]2O[C@H]3COP(=O)(O)O[C@@H]3[C@@H]2OC(=O)CCC)c(=O)[nH]1", "activity change, negative = growth inhibition": "inactive: -12.5%"},
      {"smiles": "COc1ccc2c(c1)C(=O)CC(O)(C(F)F)O2", "note": "(stereo unspecified)", "activity change, negative = growth inhibition": "inactive: -6.7%"},
      {"smiles": "FC(F)(F)c1ccc(C2Nc3cccc4cccc(c34)N2)cc1", "Potency": "inconclusive [inhibitor, single point]"},
      {"smiles": "CN(c1ccccc1)S(=O)(=O)c1cccc(NC(=O)c2nn(C)c(=O)c3ccccc23)c1", "Potency": "inconclusive [inhibitor, single point]"},
      {"smiles": "COc1ccc(-n2cc(C(=O)OCc3ccc(F)c(F)c3)c3ccccc3c2=O)cc1", "activity change, negative = growth inhibition": "inactive: 13.4%"},
      {"smiles": "Cc1ccc(Cl)cc1N1CCN(S(=O)(=O)c2c(C)noc2C)CC1", "activity change, negative = growth inhibition": "inconclusive: -31.3% [inhibitor]"},
      {"smiles": "CCN(CC)CCNc1nc(-c2cccs2)c(CC(=O)O)s1", "Potency": "inconclusive [inhibitor, partial curve, poor fit]"},
      {"smiles": "CN(C)C(=O)c1cc(C(=O)c2ccccc2C(F)(F)F)c[nH]1", "Potency": "inconclusive [inhibitor, partial curve]"},
      {"smiles": "COc1ccc(OC)c(S(=O)(=O)n2nc(C)cc2C)c1", "activity change, negative = growth inhibition": "inconclusive: -30.7% [inhibitor]"},
      {"smiles": "O=C(CN1CCSC1=NCc1ccccc1)c1ccccc1", "Potency": "inconclusive [inhibitor, single point]"},
      {"smiles": "Cc1ccc(C(=O)NC(=S)Nc2ccc(CN3CCOCC3)cc2)cc1", "Potency": "inconclusive [inhibitor, single point]"},
      {"smiles": "Cc1ccc(C(=O)N2CCN(C(=O)c3ccccc3)C2c2ccc(N(C)C)cc2)cc1", "note": "(stereo unspecified)", "Potency": "inconclusive [inhibitor, partial curve]"},
      {"smiles": "CC(=O)c1ccc(N(CC(=O)NC2CCCC2)C(=O)CNC(=O)c2ccco2)cc1", "activity change, negative = growth inhibition": "inactive: 1.81%"},
      {"smiles": "COc1ccc(C2C(=O)N(C3CCCCC3)CC(=O)N2CCC2=CCCCC2)cc1", "note": "(stereo unspecified)", "Potency": "active: 16.4 µM"},
      {"smiles": "CCN(CC)S(=O)(=O)c1ccc(N/N=C/c2cc(OC)c(OC)cc2OC)nc1", "Potency": "inconclusive [inhibitor, single point]"},
      {"smiles": "Cc1cccc(N2CCN(C(=O)CCc3c(C)nc4c(c3C)c(=O)n(C)c(=O)n4C)CC2)c1C", "Potency": "inconclusive [inhibitor, partial curve, poor fit]"},
      {"smiles": "COc1ccc2cc(C(C)C(=O)Nc3cccc(S(=O)(=O)N(C)C)c3)ccc2c1", "note": "(stereo unspecified)", "Potency": "active: 23.1 µM"},
      {"smiles": "CC(C)(C)n1nnnc1C(c1cccs1)N1CCN(c2ccccc2)CC1", "note": "(stereo unspecified)", "Potency": "inconclusive [inhibitor, single point]"},
      {"smiles": "COc1cccc(/C=C2/C(=O)NN(c3ccccc3)C2=O)c1", "Potency": "inconclusive [inhibitor, single point]"},
      {"smiles": "COCC(=O)N1CCC2(CCN(Cc3cc(C(F)(F)F)cc(C(F)(F)F)c3)CC2)CC1", "Potency": "inconclusive [inhibitor, single point]"},
      {"smiles": "COc1cccc(-c2cncnc2NCc2cccs2)c1", "Potency": "inconclusive [inhibitor, single point]"},
      {"smiles": "NNc1nc2sc3c(c2c(=O)[nH]1)CCc1ccccc1-3", "Potency": "inconclusive [inhibitor, single point]"},
      {"smiles": "COc1ccc(N(CC(=O)N2CCN(C)CC2)S(=O)(=O)c2cc(C)ccc2OC)cc1Cl", "activity change, negative = growth inhibition": "inactive: -4.51%"},
      {"smiles": "CCOc1ccc(CCNC(=O)Cn2ncn3c(cc4sc(C)cc43)c2=O)cc1OCC", "Potency": "inconclusive [inhibitor, single point]"},
      {"smiles": "COc1ccc([C@H]2C[C@@H](n3cc(-c4ccc(F)cc4)nn3)[C@H](O)CN2Cc2cccs2)cc1", "Potency": "inconclusive [inhibitor, single point]"},
      {"smiles": "COc1ccc(C(C)=O)cc1COC(=O)c1c(C)noc1C", "Potency": "active: 14.6 µM"},
      {"smiles": "CN(C(=O)c1ccc(-c2ccccc2)cc1)C1CCCCC1", "Potency": "inconclusive [inhibitor, single point]"},
      {"smiles": "CCCNC(=O)c1ccccc1NC(=O)C1COc2ccccc2O1", "note": "(stereo unspecified)", "Potency": "inconclusive [inhibitor, single point]"},
      {"smiles": "COC(=O)c1ccc(-c2nc(CN3CCCN(C(=O)c4ccco4)CC3)c(C)o2)cc1", "activity change, negative = growth inhibition": "inconclusive: -30% [inhibitor]"},
      {"smiles": "O=C(NCCc1cccnc1)c1cnn(-c2ncc3c(n2)-c2ccccc2CC3)c1C1CC1", "activity change, negative = growth inhibition": "inconclusive: -32.5% [inhibitor]"},
      {"smiles": "Cc1cc(C(=O)Nc2ccc3c(c2)CCC3)ccc1[N+](=O)[O-]", "activity change, negative = growth inhibition": "inconclusive: -33.4% [inhibitor]"},
      {"smiles": "Cc1cccc(N(CC(=O)N2CCN(c3ccc(F)cc3)CC2)S(C)(=O)=O)c1C", "Potency": "inconclusive [inhibitor, single point]"},
      {"smiles": "O=C(NCc1nc2ccccc2[nH]1)C1=C[C@H](c2ccccc2)C[C@H](OCCCCO)O1", "Potency": "inconclusive [inhibitor, single point]"},
      {"smiles": "Clc1ccc(-c2cn3ncsc3n2)cc1", "Potency": "inconclusive [inhibitor, single point]"},
      {"smiles": "Cc1cc(C(=O)CN2C(=O)NC(C)(c3cc(F)ccc3F)C2=O)c(C)n1C1CC1", "note": "(stereo unspecified)", "Potency": "active: 16.4 µM"},
      {"smiles": "Cc1ccc(CN2CCC(C)(Oc3ccc(Cl)cc3)C2)cc1", "note": "(stereo unspecified)", "Potency": "inconclusive [inhibitor, single point]"},
      {"smiles": "C[C@H]1CCCCO[C@@H](CN(C)S(=O)(=O)c2ccc(Cl)cc2)[C@@H](C)CN([C@@H](C)CO)C(=O)c2cc(NS(=O)(=O)c3ccccc3)ccc2O1", "Potency": "inconclusive [inhibitor, single point]"},
      {"smiles": "CCN1CCN(c2oc(/C=C/c3ccc(OC)c(OC)c3)nc2C#N)CC1", "Potency": "inconclusive [inhibitor, single point]"},
      {"smiles": "Fc1ccc(-n2[nH]nnc2=S)cc1N1CCCC1", "activity change, negative = growth inhibition": "inactive: -0.646%"},
      {"smiles": "Cc1ccccc1Nc1nc(N)nc(CSc2nc3ccccc3c(=O)n2CCCO)n1", "Potency": "active: 18.4 µM"},
      {"smiles": "Cc1ccc(CN2CCSc3ccc(C(=O)N4CCN(c5ccc(Cl)cc5)CC4)cc32)cc1", "Potency": "active: 20.6 µM"},
      {"smiles": "CN1CCc2c(OCc3ccc(F)cc3)cccc2C1=O", "Potency": "inconclusive [inhibitor, partial curve]"},
      {"smiles": "Cc1ccc2c(COC(=O)c3ccccc3OC(F)F)cc(=O)oc2c1", "activity change, negative = growth inhibition": "inactive: -23%"},
      {"smiles": "COc1ccccc1NC(=O)c1cc(S(=O)(=O)NCCc2ccccc2)ccc1F", "Potency": "inconclusive [inhibitor, single point]"},
      {"smiles": "COc1ccc(C2Nc3ccccc3C(=O)N2c2ccccc2)cc1CSc1ccccn1", "note": "(stereo unspecified)", "Potency": "inconclusive [inhibitor, single point]"},
      {"smiles": "CCOC1=C2CN(S(=O)(=O)c3ccc(C)cc3)[C@@H](c3ccc(CC)cc3)C[C@H]2[C@H]2C(=O)N(c3ccccc3)C(=O)[C@H]2C1", "activity change, negative = growth inhibition": "inactive: -11.8%"},
      {"smiles": "COc1ccc(-n2c(=O)cc(N3CCN(c4ccccc4OC)CC3)[nH]c2=O)cc1", "Potency": "inconclusive [inhibitor, single point]"},
      {"smiles": "COc1cc(C2Sc3ccccc3NC3=C2C(=O)OC3)cc(OC)c1OC", "note": "(stereo unspecified)", "Potency": "inconclusive [inhibitor, single point]"},
      {"smiles": "COc1cccc(Oc2cc(Cl)nc(N)n2)c1", "activity change, negative = growth inhibition": "inactive: 5.15%"},
      {"smiles": "C/C(=N\\NC(=O)c1ccccc1)c1c(C)[nH]n(-c2ccccc2)c1=O", "Potency": "active: 0.411 µM"},
      {"smiles": "O=C(Nc1ncccc1O)c1ccc2c(c1)OCO2", "Potency": "active: 16.4 µM"},
      {"smiles": "CC(C)(C)NC(=O)c1ccc(NC(=O)c2ccccc2-c2ccccc2C(=O)O)cc1", "activity change, negative = growth inhibition": "inactive: -3.38%"},
      {"smiles": "CCNCc1cc(Cl)c(OCc2ccccc2)c(OCC)c1", "Potency": "inconclusive [inhibitor, single point]"},
      {"smiles": "COc1cccc(CNC(=O)c2ccc3nc(N4CCCCC4)sc3c2)c1OC", "Potency": "inconclusive [inhibitor, single point]"},
      {"smiles": "COc1cccc(CNC(=O)C(NS(=O)(=O)c2cccs2)C(C)C)c1", "note": "(stereo unspecified)", "activity change, negative = growth inhibition": "inactive: -16.9%"},
      {"smiles": "Cc1ccc(C(=O)NCCc2cccc(Cl)c2)cc1[N+](=O)[O-]", "Potency": "active: 20.6 µM"},
      {"smiles": "CCOC(=O)[C@H]1[C@H]2COc3ccc(OC)cc3[C@@H]2N2C(=O)CN(Cc3ccc(OC)cc3)C(=O)[C@@]12C", "Potency": "inconclusive [inhibitor, single point]"}
    ]}
  ]
}
